From PMC12002642
No constants are given. Whether binding was seen depends on the method and setting. Some results given as binding are weak or reduced against the parent protein; the word gives no strength. Tags and fused reporters may be left off the sequences shown.

T1: Ppn1^(V354A, L355P), yeast two-hybrid fusion (S. japonicus) (UniProt B6K4E4)
T1 sequence: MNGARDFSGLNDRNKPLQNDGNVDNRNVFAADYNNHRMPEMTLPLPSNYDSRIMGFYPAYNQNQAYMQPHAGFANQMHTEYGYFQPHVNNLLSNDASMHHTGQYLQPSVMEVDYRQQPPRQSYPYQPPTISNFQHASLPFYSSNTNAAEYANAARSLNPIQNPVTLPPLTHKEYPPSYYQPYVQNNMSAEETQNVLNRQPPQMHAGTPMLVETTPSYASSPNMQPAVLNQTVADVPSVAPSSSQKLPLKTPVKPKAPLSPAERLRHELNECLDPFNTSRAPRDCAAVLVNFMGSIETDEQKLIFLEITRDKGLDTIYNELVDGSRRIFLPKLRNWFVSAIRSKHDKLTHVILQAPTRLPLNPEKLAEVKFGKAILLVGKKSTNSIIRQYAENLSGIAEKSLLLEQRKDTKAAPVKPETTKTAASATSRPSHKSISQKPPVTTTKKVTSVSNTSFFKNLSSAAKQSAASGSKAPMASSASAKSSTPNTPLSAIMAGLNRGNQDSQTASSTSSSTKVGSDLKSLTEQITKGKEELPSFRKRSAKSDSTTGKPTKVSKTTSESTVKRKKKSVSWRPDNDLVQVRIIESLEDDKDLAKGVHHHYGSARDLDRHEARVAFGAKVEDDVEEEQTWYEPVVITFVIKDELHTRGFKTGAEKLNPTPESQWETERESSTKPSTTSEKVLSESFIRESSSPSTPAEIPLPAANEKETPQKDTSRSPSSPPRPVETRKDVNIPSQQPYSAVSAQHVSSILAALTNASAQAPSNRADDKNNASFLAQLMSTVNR

T2: Ppn1 (PPP1R10 ortholog), full-length, yeast two-hybrid fusion (S. japonicus) (UniProt B6K4E4)
T2 sequence: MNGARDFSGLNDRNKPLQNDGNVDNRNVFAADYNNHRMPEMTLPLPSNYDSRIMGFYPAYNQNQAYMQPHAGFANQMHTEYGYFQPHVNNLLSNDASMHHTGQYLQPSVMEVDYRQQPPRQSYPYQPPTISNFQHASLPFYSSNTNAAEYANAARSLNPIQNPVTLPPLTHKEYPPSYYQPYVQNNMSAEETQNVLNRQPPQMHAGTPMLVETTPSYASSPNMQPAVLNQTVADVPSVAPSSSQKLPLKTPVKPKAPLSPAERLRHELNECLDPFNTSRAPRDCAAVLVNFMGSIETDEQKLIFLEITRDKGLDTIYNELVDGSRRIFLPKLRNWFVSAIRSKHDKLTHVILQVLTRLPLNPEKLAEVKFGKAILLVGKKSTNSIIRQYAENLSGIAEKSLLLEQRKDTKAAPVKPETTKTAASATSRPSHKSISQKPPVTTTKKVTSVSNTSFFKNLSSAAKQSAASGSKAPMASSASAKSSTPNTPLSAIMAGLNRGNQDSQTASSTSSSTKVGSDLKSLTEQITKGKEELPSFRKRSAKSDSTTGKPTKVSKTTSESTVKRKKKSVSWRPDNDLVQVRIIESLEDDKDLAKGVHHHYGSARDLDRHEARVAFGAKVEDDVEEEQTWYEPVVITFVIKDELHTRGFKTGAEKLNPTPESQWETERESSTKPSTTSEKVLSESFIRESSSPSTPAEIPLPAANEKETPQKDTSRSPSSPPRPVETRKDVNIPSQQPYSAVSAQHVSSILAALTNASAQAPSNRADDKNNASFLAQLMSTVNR

T3: Rmn1 (RBM26·27 ortholog), full-length, yeast two-hybrid fusion (S. japonicus) (UniProt B6K5G4)
T3 sequence: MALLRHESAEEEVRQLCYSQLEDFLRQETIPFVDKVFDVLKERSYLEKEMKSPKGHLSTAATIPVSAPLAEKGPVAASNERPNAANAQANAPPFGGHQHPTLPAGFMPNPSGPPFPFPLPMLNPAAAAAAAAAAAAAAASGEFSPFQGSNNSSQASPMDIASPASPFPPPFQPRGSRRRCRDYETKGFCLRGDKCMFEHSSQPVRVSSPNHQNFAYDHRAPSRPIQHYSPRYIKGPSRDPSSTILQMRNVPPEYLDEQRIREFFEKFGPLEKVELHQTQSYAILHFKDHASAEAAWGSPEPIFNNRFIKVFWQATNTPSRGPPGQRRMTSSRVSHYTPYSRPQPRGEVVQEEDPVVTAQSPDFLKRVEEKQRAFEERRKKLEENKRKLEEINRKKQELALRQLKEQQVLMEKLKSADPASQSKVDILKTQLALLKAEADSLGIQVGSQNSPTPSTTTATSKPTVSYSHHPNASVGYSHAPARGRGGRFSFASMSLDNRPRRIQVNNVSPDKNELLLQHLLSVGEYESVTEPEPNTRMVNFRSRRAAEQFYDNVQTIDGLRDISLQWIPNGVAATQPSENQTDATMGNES

T4: Pab2 (nuclear poly(A)-binding protein Pab2/PABPN1), full-length, yeast two-hybrid fusion (S. japonicus) (UniProt B6K794)
T4 sequence: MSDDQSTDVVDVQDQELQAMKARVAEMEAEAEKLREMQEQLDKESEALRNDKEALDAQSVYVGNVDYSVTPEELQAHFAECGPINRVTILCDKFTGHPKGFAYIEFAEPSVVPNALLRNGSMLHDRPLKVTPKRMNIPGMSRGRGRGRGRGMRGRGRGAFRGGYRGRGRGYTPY

B1: Pab2 (nuclear poly(A)-binding protein Pab2/PABPN1), full-length, yeast two-hybrid fusion (protein, UniProt B6K794 1-174)
chain: MSDDQSTDVVDVQDQELQAMKARVAEMEAEAEKLREMQEQLDKESEALRNDKEALDAQSVYVGNVDYSVTPEELQAHFAECGPINRVTILCDKFTGHPKGFAYIEFAEPSVVPNALLRNGSMLHDRPLKVTPKRMNIPGMSRGRGRGRGRGMRGRGRGAFRGGYRGRGRGYTPY
B2: Clr4 (histone H3 Lys9 methyltransferase Clr4/SUV39), full-length, yeast two-hybrid fusion (enzyme, UniProt B6K768 1-518)
chain: MGARKRVRTAETWDPEEEFEVEKIVDEKLDPKGNVMLYRVRWLNYSSRSDTWEPPSNLVGCTAVLRDWHKKQKRPLPAELLTPEERQNIPKVVKKTSSSPSARTSLGNSTPVARTSKGKQDSRGTSSRRSSTNKHKQKSKRGHDTNDDQEDLYSFFGSTKRPRKTSAEATEIIEIDVEDDNAPDTEIPKADDENTKEDLIVKPPSPLQKQFIIYPVSRPPTRDAYAHFSNYEKRELFRDRLRQLRGPEITLVNEVDDEPCPSLDFQFISEYRLTEGVIPPDPNFQSGCNCPSEGCNLLEPNSCQCLEDMDDPRSFAYDEHGRLRPDSGNVIYECNDFCSCSMDCPNRVVQRGRVLPLEVFKTKDKGWGVRTIRTVKAGTFVTCYLGEVISSHEAAERDKNYEKDGITYLFDLDMFDDASEYTVDAQRYGDVSRFFNHSCSPNLAIYSVVRNRGVRTIYDLAMFSIKDINPMEELTFDYAGIREQVSPVPKEPKQPIRHGKAYRKCRCGAPNCRGWLFS
B3: Clr4 middle domain (M, amino acids 76-220), yeast two-hybrid fusion (domain or fragment, UniProt B6K768 76-220)
chain: LPAELLTPEERQNIPKVVKKTSSSPSARTSLGNSTPVARTSKGKQDSRGTSSRRSSTNKHKQKSKRGHDTNDDQEDLYSFFGSTKRPRKTSAEATEIIEIDVEDDNAPDTEIPKADDENTKEDLIVKPPSPLQKQFIIYPVSRPP
B4: Red5 (ZC3H3 ortholog), full-length, yeast two-hybrid fusion (protein, UniProt B6JVP1 1-380)
chain: MAGTNSEEQKLLEQIASLAGAINKYKYSQEQIHHQSAQKPDGANSTNWRKRKLSHWSTSRNQTLVNNPPPSPSIKGAAAKTQDDVSSMSEDATEASMFVARKDRHMQLIHKSIYEQDAQARQASMETARAKLNEKRKAVAEKKTQQKLTDPNNHLLTIQELPFIINDKDPKFIECMDTLAQLPKHIYHEGRAYVLMNRSMYKFVGTSPYSVYCRYYNMVGYCAKGGKCMYVHDPAHKYVCPRFLSGNCPNGEQCSLSHDRDEKRTPACRYFLKGKCTNPVCRYAHVHYNESVPVCPDFSEYGMCENGLHCKMKHILKCTEYALKGACHNAKCRLYHPPKELESTEKKEGAVSAEKMQGEQKQDSESSSTASGATPIFISL
B5: Rmn1 (RBM26·27 ortholog), full-length, yeast two-hybrid fusion (protein, UniProt B6K5G4 1-589)
chain: MALLRHESAEEEVRQLCYSQLEDFLRQETIPFVDKVFDVLKERSYLEKEMKSPKGHLSTAATIPVSAPLAEKGPVAASNERPNAANAQANAPPFGGHQHPTLPAGFMPNPSGPPFPFPLPMLNPAAAAAAAAAAAAAAASGEFSPFQGSNNSSQASPMDIASPASPFPPPFQPRGSRRRCRDYETKGFCLRGDKCMFEHSSQPVRVSSPNHQNFAYDHRAPSRPIQHYSPRYIKGPSRDPSSTILQMRNVPPEYLDEQRIREFFEKFGPLEKVELHQTQSYAILHFKDHASAEAAWGSPEPIFNNRFIKVFWQATNTPSRGPPGQRRMTSSRVSHYTPYSRPQPRGEVVQEEDPVVTAQSPDFLKRVEEKQRAFEERRKKLEENKRKLEEINRKKQELALRQLKEQQVLMEKLKSADPASQSKVDILKTQLALLKAEADSLGIQVGSQNSPTPSTTTATSKPTVSYSHHPNASVGYSHAPARGRGGRFSFASMSLDNRPRRIQVNNVSPDKNELLLQHLLSVGEYESVTEPEPNTRMVNFRSRRAAEQFYDNVQTIDGLRDISLQWIPNGVAATQPSENQTDATMGNES
B6: Pla1 (canonical poly(A) polymerase), full-length, yeast two-hybrid fusion (enzyme, UniProt B6K102 1-563)
chain: MASKQWGITPPISTAPPTEKENALNTALVNELKAQNLFESAQDSEKRVRVLQELQAITTEFVRKVSLSKHMSEKMASESGGKIFTYGSYRLGVYGPGSDIDTLVVVPKHVSRENFFQDLEPMLRARPEITDLAAVPEAYVPIIKFKFLGISIDLIFARLSIPRVPLDLELSDSNLLKGVEERCILSLNGTRVTDQILQLVPNRAVFKHALRAIKFWAQRRAIYANVVGFPGGVAWAMMVARICQLYPNAVSAVIVSKFFRILSQWNWPQPVLLKPIDDGPLQVRVWNPKLYPSDKAHRMPIITPAYPSMCATHNITPSTQTVILREMARAGLIVDDIMAGKKPWSALFEKHDFFHRYRYYLTVTAASKTADSQLKWSGLVESKLRHFVTRLELVDAITLAHPFNKGFNKIYMCKTEEEAQQVANGVSTAVVAKDANLEEAAKAGDQNEHKEGEGDAADEKKFSVYTTTFYIGLEIERKKGPQSKRLDITWPSQEFSEMCKKWDKFDDTMMTVFIKNTRNYTLPDEVFEPGEERPKPPTKKRIASAEKKTENDQVPKRQKVPQA
B7: Pab2ΔIDR (Pab2 lacking the C-terminal IDR), yeast two-hybrid fusion (domain or fragment, UniProt B6K794 1-135)
chain: MSDDQSTDVVDVQDQELQAMKARVAEMEAEAEKLREMQEQLDKESEALRNDKEALDAQSVYVGNVDYSVTPEELQAHFAECGPINRVTILCDKFTGHPKGFAYIEFAEPSVVPNALLRNGSMLHDRPLKVTPKRM
B8: Clr4 chromodomain (CD, amino acids 1-75), yeast two-hybrid fusion (domain or fragment, UniProt B6K768 1-75)
chain: MGARKRVRTAETWDPEEEFEVEKIVDEKLDPKGNVMLYRVRWLNYSSRSDTWEPPSNLVGCTAVLRDWHKKQKRP
B9: Clr4 SET domain (amino acids 221-518), yeast two-hybrid fusion (domain or fragment, UniProt B6K768 221-518)
chain: TRDAYAHFSNYEKRELFRDRLRQLRGPEITLVNEVDDEPCPSLDFQFISEYRLTEGVIPPDPNFQSGCNCPSEGCNLLEPNSCQCLEDMDDPRSFAYDEHGRLRPDSGNVIYECNDFCSCSMDCPNRVVQRGRVLPLEVFKTKDKGWGVRTIRTVKAGTFVTCYLGEVISSHEAAERDKNYEKDGITYLFDLDMFDDASEYTVDAQRYGDVSRFFNHSCSPNLAIYSVVRNRGVRTIYDLAMFSIKDINPMEELTFDYAGIREQVSPVPKEPKQPIRHGKAYRKCRCGAPNCRGWLFS

Key:
Assay in all cases: two-hybrid; pGBKT7 and pGADT7 plasmids co-transformed into S. cerevisiae AH109; growth on CM -Leu-Trp-His (medium interaction) and CM -Leu-Trp-His-Ade (strong interaction)
[1] = molecular target: T1, Ppn1^(V354A, L355P), yeast two-hybrid fusion (S. japonicus)
[2] = molecular target: T2, Ppn1 (PPP1R10 ortholog), full-length, yeast two-hybrid fusion (S. japonicus)
[3] = molecular target: T3, Rmn1 (RBM26·27 ortholog), full-length, yeast two-hybrid fusion (S. japonicus)
[4] = molecular target: T4, Pab2 (nuclear poly(A)-binding protein Pab2/PABPN1), full-length, yeast two-hybrid fusion (S. japonicus)

Row | Binder | binding [1] | binding [2] | binding [3] | binding [4]
1 | B1 | no binding | binds | – | –
2 | B2 | no binding | binds | binds | –
3 | B3 | – | binds | – | –
4 | B4 | – | – | binds | binds weakly
5 | B5 | – | – | – | binds
6 | B6 | – | – | – | no binding
7 | NIPGMSRGRGRGRGRGMRGRGRGAFRGGYRGRGRGYTPY (domain or fragment, UniProt B6K794 136-174) [Pab2 C-terminal intrinsically disordered region (IDR) fragment, yeast two-hybrid fusion] | – | no binding | – | –
8 | B7 | – | no binding | – | –
9 | B8 | – | no binding | – | –
10 | B9 | – | no binding | – | –
